Among all 50,000 compounds or so, about 800 (1.6%) showed an effect of 50% or more. Some of the results follow.

The text below walks through data of PubChem BioAssay AID1240 (Sanford-Burnham Center for Chemical Genomics, 2008).

The target in the assay is Bcl-2-like protein 10 (Homo sapiens) (UniProt Q9HD36). Put plainly: Phenotype converters, Bcl-B/TR3 peptide binding displacement, primary biochemical FP (AID 1240).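 Note: 0% = Bcl-B with tracer peptide and DMSO and 100% = tracer peptide lacking Bcl-B.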 Particulars: GST-Bcl-B / FITC-TR3 peptide fluorescence polarization; stronger effect = higher value; compound at 3.75 mg/L.
Chain of UniProt Q9HD36 (Q9HD36 whole entry, looked up): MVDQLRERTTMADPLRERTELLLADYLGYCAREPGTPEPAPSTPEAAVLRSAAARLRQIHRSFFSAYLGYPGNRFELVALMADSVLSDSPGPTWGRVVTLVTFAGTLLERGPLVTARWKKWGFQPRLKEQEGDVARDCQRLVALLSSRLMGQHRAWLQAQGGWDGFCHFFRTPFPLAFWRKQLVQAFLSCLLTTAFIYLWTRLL
As for `CCN(CC)c1ccc(N=Cc2c(O)n(C)c(=O)n(C)c2=O)cc1`, the displacement was determined as 6.3%.
As for `C=CCN(CC=C)C(=O)COc1ccccc1`, the displacement was determined as 5.9%.
For `O=C(Nc1ccccc1F)C1CC(=O)N(c2cccc([N+](=O)[O-])c2)C1` (stereo not given), the displacement is -5.6%.
With `Fc1cccc(Cl)c1Cc1noc(-c2ccccc2)n1`, the displacement came to 14%.
`O=c1oc(-c2ccccc2Cl)nc2ccc(-c3ccc4nc(-c5ccccc5Cl)oc(=O)c4c3)cc12`: the displacement stood at 11.6%.
For `COC(=O)C1=C(C)N=c2s/c(=C\c3ccc(OC)c(OC)c3)c(=O)n2C1/C=C/c1ccccc1` (stereo not given) the value was 49.5%; for `O=c1[nH]c(=S)[nH]c(O)c1C(c1ccncc1)c1c(O)[nH]c(=S)[nH]c1=O`, 6.1%.
For `O=C(/C=C/c1ccc(F)cc1)NCc1ccccn1` the value was -35.8%; for `O=S(=O)(Nc1ccc(O)c(-c2nc3ccccc3o2)c1)c1ccccc1`, -6.9%.
For `COc1cccc(/C=N/NC(=O)c2cc(C34CC5CC(CC(C5)C3)C4)[nH]n2)c1` the value was -7.4%; for `c1ccc(Nc2nc(-c3ccccn3)cs2)cc1`, -2.8%.
As for `COc1ccc(NC(=O)/C(=C\c2cccs2)NC(=O)c2ccccc2)cc1`, the displacement was -3.6%.
Next, `Nc1ncnc2ncc3c4ccccc4[nH]c3c12`: 10%.
On to `NC(=O)c1ccccc1NC(=O)c1cncc(Br)c1`, for which the displacement stood at 8%.
For `COc1cccc(NC(=O)COc2cc(C)c(Cl)c(C)c2)c1` the value was 13.1%; for `O=C(CSc1ncn[nH]1)Nc1ccc(Br)cc1`, -2.3%; for `C/C(=N\NC(=O)c1cccc(Cl)c1)c1ccccc1O`, -5.3%.
Take `COc1cc(/C=N/N2C(=O)c3ccccc3C2=O)c([N+](=O)[O-])cc1OC`: the displacement is -1.8%.
For `COc1cc(CN2CCN(C(=O)c3cccc(F)c3)CC2)cc(OC)c1O` the value was 24.5%; for `N/C(=N\OC(=O)c1cccc(Cl)c1)c1ccncc1`, -12.8%; for `COC(=O)c1cc(C(=O)Nc2ccc(Br)cc2F)cc([N+](=O)[O-])c1`, -4.2%.
For the compound `O=C(COc1ccc(Cl)cc1)Nc1cc(C(F)(F)F)cc(C(F)(F)F)c1`, the displacement is -10.6%.
For the compound `COc1cc(/C=C/c2[nH]c(=O)[nH]c(=O)c2[N+](=O)[O-])cc(Br)c1O`, the displacement is -1.3%.
Next, `COc1ccccc1NC(=O)NCc1ccccn1`: -2.3%; `CCCNC(=O)C(F)(F)C(F)(F)C(=O)NCCC`: -3.9%; `O=C(/C=C/c1cc2c(cc1Br)OCO2)c1ccc(Cl)cc1`: 10.2%.
For `CCN(CC)c1ccc(C=Nc2ccc(Sc3ccc([N+](=O)[O-])cc3)cc2)cc1` the value was 4.8%; for `COC(=O)c1ccccc1NC(=O)c1ccc(CN2CCN(c3ccccc3)CC2)cc1`, 23.3%; for `C=CCOC(=O)C1=C(C)NC(=O)NC1c1cccc(Oc2ccccc2)c1` (stereo not given), -2.1%.
For `CCc1ccc(S(=O)(=O)Nc2ccc([N+](=O)[O-])c3ccccc23)cc1` the value was -9.4%.
In the case of `Cc1ccc(S(=O)(=O)NC(C)(C)CNC(c2ccccc2)c2ccccc2)cc1`, the displacement was -5.7%.
With `C=CCNC(=O)CN(c1cccc(Br)c1)S(=O)(=O)c1ccccc1`, the displacement is 0.2%.
For `CC(C)c1ccccc1OCCCN1CCOCC1` the value was -6%.
For `Cc1cc(C)c(C#N)c(SCC(=O)Nc2cccc(C)c2C)n1` the value was -6%; for `CCC(=O)N1c2ccc(OC)cc2C(=C2SC(C(=O)OC)=C(C(=O)OC)S2)C(=S)C1(C)C`, 6.7%; for `O=C(c1cccc(Cl)c1)N1CCN(Cc2ccccc2[N+](=O)[O-])CC1`, 10.9%.
As for `O=c1c([N+](=O)[O-])c(N2CCCCCC2)c2ccccc2n1-c1ccccc1`, the displacement was -13.4%.
Next, `CC(C)CC(NC(=O)/C(=C\c1ccc2c(c1)OCO2)NC(=O)c1ccco1)C(=O)O` (stereo not given): -1.7%; `CC1=C(C(=O)Nc2cc(Cl)ccc2C)C(c2ccccc2Br)NC(=S)N1` (stereo not given): -8.3%; `O=C(Nc1ccccc1)Nc1nnc(C23CC4CC(CC(C4)C2)C3)s1`: 17.6%.
On to `O=[N+]([O-])c1cc(Br)ccc1C1CC1`, for which the displacement is -6%.
Regarding `Cc1cccc(CN2CCN(Cc3ccncc3)CC2)c1`, the displacement is -1.1%.
Next, `Cc1cccc(NC(=O)C(=O)NCCO)c1C`: 6.1%; `C=CCOc1ccccc1C=C1C(=O)NC(=O)NC1=O`: 10.1%; `O=C(Nc1ccc(C2CCCCC2)cc1)C1=C(O)CCn2c1nc1ccccc12`: -0.7%.
As for `COc1ccc(/C=C2\C(=O)N(c3ccc(F)cc3)N=C2C)c(OC)c1`, the displacement came to 12.9%.
As to `CCOC(=O)c1c(C)nc2n(/N=C/c3ccc([N+](=O)[O-])cc3)c3ccccc3n12`, the displacement is 4.9%.
On to `COc1ccc(/C=C2\SC(N3CCC(C)CC3)=NC2=O)cc1OC`, for which the displacement is -16.2%.
In the case of `Cc1ccc(Nc2cc(N3CCOCC3)c3noc4c3c2C(=O)c2ccccc2-4)cc1`, the displacement was found to be 5.8%.
As to `O=C(NC(=S)N1CCOCC1)c1cccs1`, the displacement was -0.6%.
`COc1cccc(NC(=O)COc2ccc3ccccc3c2)c1`: the displacement turned out to be 0%.
For `Cc1ccc(N2C(=O)CC(N3CCN(c4ccc([N+](=O)[O-])cc4)CC3)C2=O)cc1` (stereo not given), the displacement is 1.2%.
For `Cc1cccc(N2C(=O)C(=O)/C(=C(\O)c3ccccc3)C2c2cccc([N+](=O)[O-])c2)c1` (stereo not given), the displacement came to 9.5%.
Next, `COc1ccc(C2C(C(=O)Nc3ccccc3)=C(C)N=C3SCC(=O)N32)cc1` (stereo not given): -15.9%.
Next, `O=C(c1ccc(F)cc1)N1CCN(Cc2ccccc2Cl)CC1`: 2.1%; `CCOC(=O)N1CCN(c2ccccc2)CC1`: -1.5%; `CCOc1ccc(N2C(=O)CC(N3CCC(C(N)=O)CC3)C2=O)cc1` (stereo not given): 8.1%.
Regarding `Nc1ccc(Cl)cc1-n1nc(-c2ccc(F)cc2)c2ccccc2c1=O`, the displacement was 12.6%.
For `CCCCCC(=O)N/N=C/c1cccnc1` the value was -2.1%.
With `Cc1ccc(S(=O)(=O)Oc2ccccc2/C=C2/SC(=S)N(Cc3ccccc3)C2=O)cc1`, the displacement is 17.1%.
As to `COc1cccc(-c2nc3sc4c(c3c(=O)[nH]2)CCCC4)c1`, the displacement stood at 1.3%.
In the case of `CC(=O)Nc1ccc(OC(=O)c2cccc([N+](=O)[O-])c2)cc1`, the displacement is -7.7%.
Next, `C/C(=N\NS(C)(=O)=O)c1ccccc1`: 6.7%; `O=[N+]([O-])c1cc2c(cc1C=Nc1ccc(F)cc1)OCO2`: 6.7%.
For the compound `O=C(NCC1CCCO1)c1c(Cl)cccc1Cl` (stereo not given), the displacement came out at 10.5%.
For `CC(C)(C)C(=O)/C=C(/c1ccccc1)N1CCCCC1`, the displacement is -8%.
For `CCN(CC)c1ccc(N=Cc2ccc(OC)c3ccccc23)cc1` the value was -0.5%; for `CC(=C\C(=O)O)/C(=C\CC(C)CCCC(C)C)C(=O)O` (stereo not given), -11.3%.
As for `O=S(=O)(c1ccccc1)N1CCSC1c1ccc(Br)cc1` (stereo not given), the displacement was -0.2%.
Next, `CSc1nc(O)c(Cc2ccccc2)c(=O)n1-c1ccccc1`: -9.8%.
